From PubChem BioAssay AID1347073 (National Center for Advancing Translational Sciences (NCATS), 2019) come the findings set out here.

About 200 (0.44%) of roughly 45,000 compounds were called active. Not shown: some 7% with an inconclusive outcome. Calls follow the shape of the dose curve; as a rule, active = well fitted activation curve with a large enough effect; inconclusive = small, poorly fitted or top-dose-only effect; inactive = no such curve, though single readings can be large or run the other way. This is one part of the list.

A short description of this assay: qHTS of TDP-43 Inhibitors: NCGC Sytravon Library Screen. Also: 0% is about no effect; nearly all actives have a fitted effect of over 55% in size. To be noted: yeast TDP-43 toxicity rescue, BacTiter-Glo growth, 24 h; series mostly up to 46.1 µM; growth rescue (activation): at the top concentration. The procedure, abridged: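 TDP-43-expressing yeast, pregrown in raffinose, seeded at OD600 0.02 in galactose medium with compound for 24 hr at 30 deg C. Growth read by BacTiter-Glo luminescence, so rescue of toxicity appears as activation.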
(In general: In qHTS, concentration-response curves come from the screen itself.)
In the case of `Cc1ccccc1OCC(=O)Nc1ccccc1NC(=O)c1ccco1`, the “growth rescue (activation)” value was inactive: 14.2%.

For `Cc1ccc(-n2cc(CN3CCN(Cc4nccn4C)CC3)c(-c3cccc(C)c3)n2)cc1`, the “growth rescue (activation)” value is inactive: 12.9%.

In the case of `CCn1c(C)nc2cc(C(=O)NNC(=O)CCC3CCCC3)ccc21`, the “growth rescue (activation)” value is inactive: 4.43%.

With `Cc1ccccc1C(=O)OCC(=O)NCc1ccco1`, the “growth rescue (activation)” value is inactive: -14.3%.

With `Brc1ccc(C2=CSC3=NCCN23)cc1`, the “growth rescue (activation)” value was inactive: 4.42%.

Turning to `O=S(=O)(c1ccc(NC(=S)N/N=C/c2ccc(O)c(O)c2)cc1)N1CCOCC1`, the “growth rescue (activation)” value was inactive: -5.4%.

With `CCCOC(=O)/C=C/c1c(C)[nH]c(=O)[nH]c1=O`, the “growth rescue (activation)” value was inactive: -2.63%.

Consider `COc1ccc(-c2cc(-c3cccnc3)c(C#N)c(N)n2)cc1`, for which the “growth rescue (activation)” value is inactive: 9.97%.

On to `CC1=NNC(=O)c2ccccc2O1`, for which the “growth rescue (activation)” value is inactive: -15.7%.

`N#CC1=C(N)N(c2ncn[nH]2)C2=C(C(=O)CCC2)C1c1ccccc1` (centres undefined): the “growth rescue (activation)” value is inactive: -4.59%.

For `C=CCN1C(=O)C(=O)N(Cc2nc3ccccc3s2)C1=O`, the “growth rescue (activation)” value is inactive: -2.82%.

For `Cn1nnnc1Sc1ccc(C(=O)O)cc1[N+](=O)[O-]`, the “growth rescue (activation)” value was inactive: 7.93%.

`CCOP(=O)(OCC)C(NC(=O)Nc1c(C)cc(C)cc1C)c1ccccc1` (centres undefined): the “growth rescue (activation)” value is inactive: 7.19%.

As to `CC(=O)Nc1cnc(-c2ccccc2C(C)=O)cn1`, the “growth rescue (activation)” value was inactive: 7.42%.

As for `O=C(N/N=C/c1ccccc1F)c1cccc(NC(=O)c2ccccc2Cl)c1`, the “growth rescue (activation)” value was inactive: 14.1%.

With `COc1ccc(CNC(=O)CCC(=O)c2ccc(F)cc2)cc1OC`, the “growth rescue (activation)” value was inactive: 24.9%.

In the case of `COc1ccc(NC(=O)c2cccnc2)cc1OCC(C)C`, the “growth rescue (activation)” value was inactive: 7.2%.

On to `N#CCCN1CCN(C(CNS(=O)(=O)c2ccc(Cl)cc2)c2ccccc2)CC1` (centres undefined), for which the “growth rescue (activation)” value was inactive: 6.79%.

Take `COc1ccccc1Oc1ccc(S(=O)(=O)N2CCCCC2C)cc1` (centres undefined): the “growth rescue (activation)” value was inactive: -13%.

For `CCOc1cc(NC(=O)c2ccco2)c(OCC)cc1NC(=O)c1ccco1`, the “growth rescue (activation)” value was inactive: -14.4%.

For `CC(=O)c1sc(NC(=O)c2ccc(COc3ccccc3Cl)o2)nc1C`, the “growth rescue (activation)” value was inactive: -20.2%.

As to `O=C(COC(=O)c1ccc(S(=O)(=O)N2CCc3ccccc3C2)cc1)NC1CCS(=O)(=O)C1` (centres undefined), the “growth rescue (activation)” value was inactive: 8.6%.

Take `COc1cc(C(=O)NC2CCN(CC(=O)Nc3cccc(C)c3C)CC2)cc(OC)c1OC`: the “growth rescue (activation)” value is inactive: 4.46%.

In the case of `Cn1cnc2cc(NC(=O)COc3ccccc3)ccc21`, the “growth rescue (activation)” value was inactive: 4.77%.

For the molecule `COc1cccc(NC(=O)CC2S/C(=N\S(=O)(=O)c3ccccc3)N(c3ccccc3)C2=O)c1` (centres undefined), the “growth rescue (activation)” value was inactive: -0.523%.

In the case of `NC(=O)c1cc(C(=O)c2cccc(Cl)c2Cl)c[nH]1`, the “growth rescue (activation)” value was inactive: 9.67%.

For the molecule `COc1ccc(CCNC(=O)C2CCN(C(=O)c3ccccc3C)CC2)cc1`, the “growth rescue (activation)” value is inactive: 5.58%.

On to `CC(C)CNC(=O)c1oc2ccccc2c1COc1ccccc1`, for which the “growth rescue (activation)” value was inactive: -1.37%.

Consider `CCCC(=O)N1CCCC1(C)C(=O)Nc1cc(C)ccc1C` (centres undefined), for which the “growth rescue (activation)” value is inactive: 9.82%.

As to `Cn1c(=O)n(C)c2cc(S(=O)(=O)Nc3ccccc3)ccc21`, the “growth rescue (activation)” value is inactive: -2.25%.

With `CCOC(=O)N1CCC(N2CCN(S(=O)(=O)c3ccc(OC)cc3)CC2)CC1`, the “growth rescue (activation)” value is inactive: 6.47%.

As for `COc1ccc(OC)c(CNC(=O)C2CCN(S(C)(=O)=O)CC2)c1`, the “growth rescue (activation)” value was inactive: 17.5%.

As to `CC(NC(=O)Nc1ccccc1)C(c1ccccc1)N1CCOCC1` (centres undefined), the “growth rescue (activation)” value is inactive: 13.2%.

Turning to `Cc1ccc(C)c(Cn2c(=O)n(CCC(=O)NCc3ccc4c(c3)OCO4)c(=O)c3sccc32)c1`, the “growth rescue (activation)” value is inactive: 4.44%.

Regarding `COc1ccccc1N1CCN(C2CCN(C(=O)COc3cccc(C)c3)CC2)CC1`, the “growth rescue (activation)” value is inactive: -0.204%.

For `CCOC(=O)c1c(-c2ccccc2)csc1NC(=O)c1cc(-c2ccccc2OC)on1`, the “growth rescue (activation)” value is inactive: -2.18%.

For `CCOC(=O)c1c(-c2ccccc2)oc2ccc(OC(C)C(=O)O)cc12` (centres undefined), the “growth rescue (activation)” value is inactive: 2.17%.

Turning to `CCOC(=O)CNC(=O)c1cc(OC)cc(OC)c1`, the “growth rescue (activation)” value was inactive: -13.3%.

Regarding `CCC(=O)N1CCCC(C)(C(=O)NS(=O)(=O)c2cccs2)C1` (centres undefined), the “growth rescue (activation)” value is inactive: -1.81%.

`CCCCCCC1CCC(C(=O)N2CCOCC2)CC1` (centres undefined): the “growth rescue (activation)” value is inactive: 1.53%.

With `Cc1cccn2c(=O)c(/C=N/O)c(Nc3ccccc3F)nc12`, the “growth rescue (activation)” value was inactive: -3.17%.

With `C/C(=N\N1CCN(c2ccc(Cl)cc2)CC1)c1cccc([N+](=O)[O-])c1`, the “growth rescue (activation)” value was inactive: -0.715%.

In the case of `NS(=O)(=O)c1ccc(CCNC(=O)c2cnc(Cl)c(Cl)c2)cc1`, the “growth rescue (activation)” value is inactive: -2.08%.

In the case of `CCOc1ccc(OCCCCN(C)C)cc1`, the “growth rescue (activation)” value is inactive: -4.9%.

For the molecule `Cc1ccc(C)c(OCC(=O)Nc2ccccc2C(=O)N2CCN(C)CC2)c1`, the “growth rescue (activation)” value is inactive: -12.1%.

For `CC(=O)c1cccc(NC(=O)CCNC(=O)c2ccccc2Cl)c1`, the “growth rescue (activation)” value was inactive: -7.57%.

With `O=C1NC(=Nc2ccc(Cl)cc2)SC1Cc1cccc(Cl)c1Cl` (centres undefined), the “growth rescue (activation)” value is inactive: -6.83%.

Consider `Cn1nccc1C(=O)NC1CC(C)(C)Cc2c1cnn2-c1ccc(F)cc1` (centres undefined), for which the “growth rescue (activation)” value is inactive: 19%.

As for `COc1ccc(/C=C2\CCn3c2nc2cc(C(=O)O)ccc2c3=O)cc1OC`, the “growth rescue (activation)” value is inactive: -3.59%.

For the molecule `Fc1ccccc1COc1ccc2ccccc2c1CNc1nn[nH]n1`, the “growth rescue (activation)” value is inactive: 16.5%.

Turning to `CCOc1nc(-c2ccccc2)ccc1-c1noc(-c2cccnc2)n1`, the “growth rescue (activation)” value was inactive: -22.7%.

Regarding `O=C(NCCCn1ccnc1)C1CC(c2ccccc2Cl)=NO1` (centres undefined), the “growth rescue (activation)” value is inactive: 22.9%.

In the case of `CCn1c(C)nnc1SCC(=O)NC1CCCC1`, the “growth rescue (activation)” value is inactive: -6.38%.

Consider `O=C(OCC(=O)N1CCCCC1)c1cc(NS(=O)(=O)c2ccc(Cl)c([N+](=O)[O-])c2)ccc1O`, for which the “growth rescue (activation)” value was inactive: 4.13%.
